Experimental data reported in paper PMC5021370.
These are yes or no findings as the source states them, for the method shown. For some assays here: In cells and extracts the contact can be indirect. Some results given as binding are weak or reduced against the parent protein; the word gives no strength. Where a sequence is shown, tags or fusion partners need not be part of it.

T1: GST-SPARC Cterm (aa 154–303) (UniProt P09486)
T1 sequence: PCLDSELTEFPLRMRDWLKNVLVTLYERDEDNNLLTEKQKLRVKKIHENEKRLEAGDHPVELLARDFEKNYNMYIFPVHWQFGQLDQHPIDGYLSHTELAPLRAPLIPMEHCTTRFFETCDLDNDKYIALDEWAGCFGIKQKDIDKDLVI

T2: GST-SPARC (aa 18–303) (UniProt P09486)
T2 sequence: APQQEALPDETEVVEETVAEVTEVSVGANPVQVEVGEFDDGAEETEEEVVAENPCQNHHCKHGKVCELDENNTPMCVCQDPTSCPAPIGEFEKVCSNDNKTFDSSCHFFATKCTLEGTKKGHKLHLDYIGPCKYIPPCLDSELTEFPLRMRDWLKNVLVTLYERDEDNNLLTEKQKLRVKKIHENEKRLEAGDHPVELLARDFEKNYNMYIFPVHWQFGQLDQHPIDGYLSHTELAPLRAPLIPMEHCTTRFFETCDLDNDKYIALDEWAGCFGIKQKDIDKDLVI

T3: GST-SPARC aa 18–266 (full-length SPARC lacking the last 37 amino acids) (UniProt P09486)
T3 sequence: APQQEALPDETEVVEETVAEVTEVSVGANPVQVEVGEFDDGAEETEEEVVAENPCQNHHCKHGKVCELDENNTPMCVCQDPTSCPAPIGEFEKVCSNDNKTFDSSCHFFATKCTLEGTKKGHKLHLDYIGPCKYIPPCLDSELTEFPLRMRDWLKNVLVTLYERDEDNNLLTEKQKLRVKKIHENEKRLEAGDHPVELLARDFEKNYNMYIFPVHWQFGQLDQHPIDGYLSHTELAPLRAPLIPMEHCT

T4: GST-SPARC aa 154–256 (UniProt P09486)
T4 sequence: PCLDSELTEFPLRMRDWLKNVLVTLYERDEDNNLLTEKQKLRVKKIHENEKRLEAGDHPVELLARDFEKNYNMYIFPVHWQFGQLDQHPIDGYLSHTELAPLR


Tests used:
[1] = target: T1, GST-SPARC Cterm (aa 154–303); assay: pull-down; 10 μg GST fusion protein on Glutathione sepharose 4B beads incubated with SKOV3 cell lysate for 2 hours at 4°C; GST lysis buffer (20 mM Tris-HCl pH 7.4, 50 mM NaCl, 1% NP-40, 10% Glycerol, 0.1% ß-mercaptoethanol); four washes; Western blot; only the target purified
GST-SPARC (aa 18–303) [2] = target: T2, GST-SPARC (aa 18–303); assay: as above
[3] = target: T3, GST-SPARC aa 18–266 (full-length SPARC lacking the last 37 amino acids); assay: as above
GST-SPARC aa 154–256 = target: T4, GST-SPARC aa 154–256; assay: as above
GST-SPARC (aa 18–303) [4] = target: T2, GST-SPARC (aa 18–303); assay: pull-down; 2 μg of rTGFBI or 2 μg human plasma fibronectin incubated with 10 μg of GST fusion protein; pull-down with Glutathione sepharose 4B beads, four washes in GST lysis buffer; Western blot; both purified

Row | Binder | binding [1] | binding (GST-SPARC (aa 18–303) [2]) | binding [3] | binding (GST-SPARC aa 154–256) | binding (GST-SPARC (aa 18–303) [4])
1 | transforming growth factor beta induced (TGFBI), endogenous in SKOV3 cells (protein, UniProt Q15582 24-683) GPAKSPYQLVLQHSRLRGRQHGPNVCAVQKVIGTNRKYFTNCKQWYQRKICGKSTVISYECCPGYEKVPGEKGCPAALPLSNLYETLGVVGSTTTQLYTDRTEKLRPEMEGPGSFTIFAPSNEAWASLPAEVLDSLVSNVNIELLNALRYHMVGRRVLTDELKHGMTLTSMYQNSNIQIHHYPNGIVTVNCARLLKADHHATNGVVHLIDKVISTITNNIQQIIEIEDTFETLRAAVAASGLNTMLEGNGQYTLLAPTNEAFEKIPSETLNRILGDPEALRDLLNNHILKSAMCAEAIVAGLSVETLEGTTLEVGCSGDMLTINGKAIISNKDILATNGVIHYIDELLIPDSAKTLFELAAESDVSTAIDLFRQAGLGNHLSGSERLTLLAPLNSVFKDGTPPIDAHTRNLLRNHIIKDQLASKYLYHGQTLETLGGKKLRVFVYRNSLCIENSCIAAHDKRGRYGTLFTMDRVLTPPMGTVMDVLKGDNRFSMLVAAIQSAGLTETLNREGVYTVFAPTNEAFRALPPRERSRLLGDAKELANILKYHIGDEILVSGGIGALVRLKSLQGDKLEVSLKNNVVSVNKEPVAEPDIMATNGVVHVITNVLQPPANRPQERGDELADSALEIFKQASAFSRASQRSVRLAPVYQKLLERMKH | binds | binds | no binding | no binding | 
2 | recombinant TGFBI (rTGFBI) (protein, UniProt Q15582 24-683) GPAKSPYQLVLQHSRLRGRQHGPNVCAVQKVIGTNRKYFTNCKQWYQRKICGKSTVISYECCPGYEKVPGEKGCPAALPLSNLYETLGVVGSTTTQLYTDRTEKLRPEMEGPGSFTIFAPSNEAWASLPAEVLDSLVSNVNIELLNALRYHMVGRRVLTDELKHGMTLTSMYQNSNIQIHHYPNGIVTVNCARLLKADHHATNGVVHLIDKVISTITNNIQQIIEIEDTFETLRAAVAASGLNTMLEGNGQYTLLAPTNEAFEKIPSETLNRILGDPEALRDLLNNHILKSAMCAEAIVAGLSVETLEGTTLEVGCSGDMLTINGKAIISNKDILATNGVIHYIDELLIPDSAKTLFELAAESDVSTAIDLFRQAGLGNHLSGSERLTLLAPLNSVFKDGTPPIDAHTRNLLRNHIIKDQLASKYLYHGQTLETLGGKKLRVFVYRNSLCIENSCIAAHDKRGRYGTLFTMDRVLTPPMGTVMDVLKGDNRFSMLVAAIQSAGLTETLNREGVYTVFAPTNEAFRALPPRERSRLLGDAKELANILKYHIGDEILVSGGIGALVRLKSLQGDKLEVSLKNNVVSVNKEPVAEPDIMATNGVVHVITNVLQPPANRPQERGDELADSALEIFKQASAFSRASQRSVRLAPVYQKLLERMKH |  |  |  |  | binds
